Source: the antibiotic and cytotoxicity screens of Wong et al. (2023)
The list shows a part of the results.

Assays:
[1] = system: HSkMC (human skeletal muscle cells); assay: cytotoxicity call (relative viability < 0.9); settings: 10 µM
[2] = system: HepG2; assay: cytotoxicity call (relative viability < 0.9); settings: 10 µM
[3] = system: S. aureus RN4220; assay: growth inhibition call (relative growth <= 0.2); settings: 50 µM

COc1ccc(-c2cnc3c(c2)C(=O)N([C@@H](C)CO)C[C@H](C)[C@H](CN(C)C(=O)Cc2cccnc2)O3)cc1
inactive: cytotoxicity call [1] | cytotoxicity call [2] | growth inhibition call [3]

COc1ccc(S(=O)(=O)N(C)C[C@@H]2Oc3c(cccc3N(C)C)C(=O)N([C@@H](C)CO)C[C@@H]2C)cc1
inactive: cytotoxicity call [1] | cytotoxicity call [2] | growth inhibition call [3]

Cc1cc(C(=O)NCc2cccn2C)nn1C
inactive: cytotoxicity call [1] | cytotoxicity call [2] | growth inhibition call [3]
